42 molecules from ChEMBL document CHEMBL4888484, “Replenishing the malaria drug discovery pipeline: Screening and hit evaluation of the MMV Hit Generation Library 1 (HGL1) against asexual blood stage Plasmodium falciparum ,using a nano luciferase reporter read-out” (2022) can be followed below.

Among all 150,000 compounds or so, about 540 (0.36%) showed an effect of 50% or more. This is one part of the list.

The assay relates to Plasmodium falciparum. The experiment in a line: Primary screen in NF54 nanoGlo assay, in single point, at 2uM, 72h; a lower Z score goes with more inhibition. The following applies: timepoint 72 hour. Type of assay: functional, Erythrocyte.
For the molecule `CCOC(=O)c1c(Cc2ccccc2)n(CCc2ccccc2)c(C)cc1=O`, the % Inhibition (as a rule, the relative decrease from the control value, in per cent) is listed as 1% and the Z score is given as -0.14.

Consider `CCCOc1ccc(C(=O)Nc2nc3ccc(NC(C)=O)cc3o2)cc1`, for which the “% Inhibition” value is reported as -23% and the Z score is 4.44.

Take `CN(Cc1ccsc1)C(=O)CONC(=O)CCOc1ccccc1`: the “% Inhibition” value is 8% and the Z score is recorded as -1.16.

Take `CCOc1ccc(-c2nccn2CCc2cnccn2)cc1CO`: the “% Inhibition” value is -17% and the Z score worked out at 1.59.

Regarding `CCN(C)C[C@H](C)C(=O)Nc1c(C)cnn1Cc1cccc(C)c1`, the “% Inhibition” value was -7% and the Z score is 1.39.

`Cc1ccc(-c2ccccc2CN2CCC(c3cc[nH]n3)CC2)o1`: the “% Inhibition” value is recorded as -10% and the Z score is recorded as 1.6.

`O=C(NC1CCN(C(=O)CCc2ccccc2)C1)N[C@H]1CC[C@H]1c1ccccc1` (some centres undefined): the “% Inhibition” value is on record as 6% and the Z score is on record as -0.84.

Regarding `COc1nc(CNC(=O)COc2ccc(Cl)cc2)nc(N2CCOCC2)n1`, the “% Inhibition” value worked out at 2% and the Z score is -0.21.

Turning to `CCOC(=O)c1cc(C(=O)NCc2ccccn2)n(C)n1`, the “% Inhibition” value is -6% and the Z score is 0.79.

Turning to `COc1ccc(N2CCN(Cc3ccc(-c4ccccc4)cc3)CC2)cc1`, the “% Inhibition” value is listed as 5% and the Z score is reported as -1.

For `Cc1nnc2c(=O)n(CC(=O)NCc3cccc(Cl)c3)c3cccnc3n12`, the “% Inhibition” value is given as -2% and the Z score is recorded as 0.25.

Take `Cn1cc(C(=O)N2CC[C@H](c3noc(COc4ccc(F)cc4)n3)C2)cn1`: the “% Inhibition” value is listed as -5% and the Z score is 1.

Take `O=C(C[C@@H]1N=C(O)N(c2cccc3ccccc23)C1=O)NCCc1ccco1`: the “% Inhibition” value is listed as -6% and the Z score is given as 0.75.

Take `NCC(=O)Nc1nn(Cc2ccccc2)c2cccc(N3CCOCC3)c12`: the “% Inhibition” value is listed as 9% and the Z score is -1.28.

For `O=C1CCCc2cc(C(=O)N[C@H]3C[C@H](CO)C3)ccc2N1`, the “% Inhibition” value is -7% and the Z score is given as 1.45.

For `CC(C)CC(C)(C)C(=O)N1CCO[C@H](C(=O)O)C1`, the “% Inhibition” value was determined as 2% and the Z score is recorded as -0.37.

On to `O=C(Cn1nnnc1CN1CCCCCC1)N1CCN(c2ccccc2)CC1`, for which the “% Inhibition” value is -13% and the Z score is recorded as 1.44.

Consider `Cc1ncnc(N2CCC3(CC2)c2nc[nH]c2CCN3S(C)(=O)=O)c1C`, for which the “% Inhibition” value was -13% and the Z score came to 1.85.

Consider `COc1ccccc1NC(=O)Cn1ccnc1[C@H](O)c1ccccc1`, for which the “% Inhibition” value is reported as -10% and the Z score is recorded as 1.6.

Turning to `CCNC(=O)CCc1c(C)nn(-c2cccc(C)c2)c1Oc1ccccc1`, the “% Inhibition” value is -3% and the Z score was 0.34.

On to `COc1ccc(C(=O)Nc2cnc3ccnn3c2)c(OC)c1`, for which the “% Inhibition” value was -1% and the Z score amounted to 0.14.

For the molecule `Cc1cn2cc(C(=O)N(C)CCCCN3CCOCC3)ccc2n1`, the “% Inhibition” value was -16% and the Z score was 1.66.

Turning to `Cc1ccc(C(=O)N(CC(=O)Nc2nc(CC(=O)NCc3ccc(F)cc3)cs2)C(C)C)cc1`, the “% Inhibition” value is recorded as 2% and the Z score is -0.34.

For the molecule `CN(C)S(=O)(=O)c1ccc(Cl)c(F)c1Cl`, the “% Inhibition” value is 3% and the Z score is -0.41.

In the case of `CCOC[C@@H](O)CN1CCN(Cc2nc(C(=O)Nc3ccc(OC)cc3)co2)CC1`, the “% Inhibition” value is on record as -14% and the Z score was determined as 1.97.

Turning to `CS(=O)(=O)Cc1ccc(C#CCC2CCCC2)nc1`, the “% Inhibition” value is reported as -5% and the Z score is 0.95.

In the case of `COc1ccc(CN2C[C@H]3COC[C@@]3(c3nnc(C)o3)C2)cc1F`, the “% Inhibition” value is recorded as -5% and the Z score stood at 0.71.

`Nc1nc(-c2ccccc2Cl)nn1C(=O)c1cccc2ccccc12`: the “% Inhibition” value is listed as -10% and the Z score came out at 1.71.

For the molecule `Cn1cnc(NCc2nnc(C3CC3)s2)cc1=O`, the “% Inhibition” value is recorded as -4% and the Z score came out at 0.46.

Turning to `c1ccc(-c2ncn(CCc3c[nH]cn3)c2-c2cnc3ccccc3c2)cc1`, the “% Inhibition” value is reported as -8% and the Z score is reported as 1.47.

`CCn1cnnc1C[C@H]1CCCN(C(=O)NCC(C)C)C1`: the “% Inhibition” value is recorded as -5% and the Z score was found to be 0.7.

As for `O=C(Cn1c(-c2cccs2)cc2cc(F)ccc21)N1CCOCC1`, the “% Inhibition” value is on record as 12% and the Z score is given as -1.94.

Consider `CN1C(=O)c2cc(NC(=O)COc3ccccc3)ccc2Oc2ncccc21`, for which the “% Inhibition” value worked out at 3% and the Z score was -0.4.

Take `CC(C)(C)C(=O)N1CCN(S(C)(=O)=O)CC1`: the “% Inhibition” value is -12% and the Z score was 1.28.

As for `Cc1nn(C)c(Cl)c1CNC[C@@H](c1ccsc1)N(C)C`, the “% Inhibition” value was determined as 33% and the Z score is -4.48.

For `COCCc1noc(-c2cnc3nc(C)ccc3c2Nc2cccc(F)c2)n1`, the “% Inhibition” value is on record as -18% and the Z score turned out to be 2.12.

Consider `Oc1ccc(Cl)c(CN2C[C@H](O)[C@@H](N3CCCC3)C2)c1Cl`, for which the “% Inhibition” value was -12% and the Z score was 1.06.

In the case of `CC(C)C(=O)N1CCC([C@@H]2CN(C(=O)Cc3cccnc3)C[C@H]2COc2ccccc2)CC1`, the “% Inhibition” value is given as -6% and the Z score was determined as 0.68.

As for `O=C(Nc1cc(S(=O)(=O)N2CCOCC2)ccc1N1CCCC1)c1cc(-c2ccccc2Cl)nc2ccccc12`, the “% Inhibition” value is -11% and the Z score worked out at 1.36.

Consider `CC[C@H](NC(=O)c1cncc(O)c1)c1cccc(C)n1`, for which the “% Inhibition” value was -7% and the Z score turned out to be 0.95.

For `Cc1ccccc1C1CC(C)N(C(=O)c2ccc(C(=O)O)o2)C1` (centres undefined), the “% Inhibition” value stood at 1% and the Z score is -0.15.

For the molecule `CC(C)c1cccc(CN[C@@H](C)C2CCOCC2)n1`, the “% Inhibition” value was -6% and the Z score was found to be 1.17.
